The values that follow come from publication PMC10792917.

The chains behind the UniProt entries cited, without tags or fusion partners. Residues count along the entry.
UniProt P13726, residues 33-295: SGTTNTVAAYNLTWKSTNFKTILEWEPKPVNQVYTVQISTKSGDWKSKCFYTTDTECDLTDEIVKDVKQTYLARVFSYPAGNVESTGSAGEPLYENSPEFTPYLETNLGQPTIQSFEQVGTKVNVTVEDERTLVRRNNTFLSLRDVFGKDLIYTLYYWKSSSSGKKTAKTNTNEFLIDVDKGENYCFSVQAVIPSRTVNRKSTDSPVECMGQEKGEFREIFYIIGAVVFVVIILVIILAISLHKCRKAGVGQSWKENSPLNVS
UniProt Q96QZ7: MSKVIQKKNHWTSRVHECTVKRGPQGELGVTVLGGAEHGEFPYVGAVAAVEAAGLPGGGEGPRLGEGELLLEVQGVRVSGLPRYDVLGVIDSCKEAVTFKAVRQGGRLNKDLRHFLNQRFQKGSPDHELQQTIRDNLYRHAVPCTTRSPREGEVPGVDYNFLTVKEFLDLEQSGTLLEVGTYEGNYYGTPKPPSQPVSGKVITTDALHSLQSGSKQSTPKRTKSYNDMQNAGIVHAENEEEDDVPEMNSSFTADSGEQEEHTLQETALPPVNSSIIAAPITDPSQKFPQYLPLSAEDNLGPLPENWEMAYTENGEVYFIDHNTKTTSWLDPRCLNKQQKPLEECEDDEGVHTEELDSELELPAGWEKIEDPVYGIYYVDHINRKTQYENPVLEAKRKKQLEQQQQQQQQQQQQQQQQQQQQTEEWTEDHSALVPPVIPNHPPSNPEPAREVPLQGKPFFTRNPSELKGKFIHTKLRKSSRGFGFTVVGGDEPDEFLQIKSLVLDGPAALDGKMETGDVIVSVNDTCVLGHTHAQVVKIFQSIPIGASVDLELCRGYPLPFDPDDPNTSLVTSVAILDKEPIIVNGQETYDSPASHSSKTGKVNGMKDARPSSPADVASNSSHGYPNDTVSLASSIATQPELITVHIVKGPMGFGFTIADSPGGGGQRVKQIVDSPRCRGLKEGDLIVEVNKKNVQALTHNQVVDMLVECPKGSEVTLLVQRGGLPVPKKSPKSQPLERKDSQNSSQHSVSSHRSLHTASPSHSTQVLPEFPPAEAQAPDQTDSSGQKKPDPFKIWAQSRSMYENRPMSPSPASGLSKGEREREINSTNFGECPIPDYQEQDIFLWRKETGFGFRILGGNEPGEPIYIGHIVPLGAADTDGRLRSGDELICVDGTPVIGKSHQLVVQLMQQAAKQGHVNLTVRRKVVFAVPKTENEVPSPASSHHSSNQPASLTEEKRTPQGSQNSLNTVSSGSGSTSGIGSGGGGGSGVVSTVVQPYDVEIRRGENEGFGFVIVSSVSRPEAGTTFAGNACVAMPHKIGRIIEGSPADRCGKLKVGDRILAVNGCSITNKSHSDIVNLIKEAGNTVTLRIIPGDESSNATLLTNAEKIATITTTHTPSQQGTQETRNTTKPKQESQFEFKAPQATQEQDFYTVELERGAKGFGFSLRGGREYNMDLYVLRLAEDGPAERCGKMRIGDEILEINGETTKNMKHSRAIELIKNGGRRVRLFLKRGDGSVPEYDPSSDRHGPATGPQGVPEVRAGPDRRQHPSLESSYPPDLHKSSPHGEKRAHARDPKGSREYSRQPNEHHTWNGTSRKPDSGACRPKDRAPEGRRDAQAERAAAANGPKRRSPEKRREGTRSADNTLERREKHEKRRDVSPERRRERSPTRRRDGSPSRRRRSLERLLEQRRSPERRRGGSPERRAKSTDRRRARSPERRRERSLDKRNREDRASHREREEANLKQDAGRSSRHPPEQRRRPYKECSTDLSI
UniProt Q9H6Y5: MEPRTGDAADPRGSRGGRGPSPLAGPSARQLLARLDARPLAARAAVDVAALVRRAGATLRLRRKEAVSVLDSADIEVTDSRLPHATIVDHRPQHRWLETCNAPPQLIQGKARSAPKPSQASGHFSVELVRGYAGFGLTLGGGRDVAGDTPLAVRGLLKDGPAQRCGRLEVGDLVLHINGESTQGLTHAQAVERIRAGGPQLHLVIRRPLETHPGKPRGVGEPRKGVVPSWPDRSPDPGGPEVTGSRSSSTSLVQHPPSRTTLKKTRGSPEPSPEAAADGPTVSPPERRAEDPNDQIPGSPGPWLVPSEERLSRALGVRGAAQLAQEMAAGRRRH

No constants are given. Whether binding was seen depends on the method and setting. Binding seen in cells or lysates may run through a third protein. Some entries that bind do so weakly or less than the wild type.

In experiment [1] the target is Tissue factor (human (endogenous in MDA-MB-231)) (UniProt P13726). Briefly: co-IP; endogenous proteins from MDA-MB-231 lysate (PhosphoSafe reagent), antibody overnight at 4 C, protein A-magnetic beads, five washes with PBST, western blot; IP with anti-TF (HTF-1) or anti-MAGI1 (H-70), also studies with anti-MAGI2, anti-MAGI3, anti-MAGIX (D-18), anti-Rhophilin-1 (I-19); resting cells and cells treated with PAR2-AP 20 uM 20 min (33% less MAGI1 with TF; 19% less TF with MAGI1). In general terms: In western blotting, separated proteins are transferred to a membrane and probed.

Experiment [2] has as its target T1, Scrambled peptide (biotin-…).
T1 sequence (peptide, biotin on the N-terminus): SWGNVSKLSAPRQGVNKE
Put plainly: pull-down; plate pull-down: biotinylated TF peptides (5 uM in PBS) bound to NeutrAvidin-coated 96-well plate; MDA-MB-231 lysate (from 2 x 10^5 cells) 1 h at room temperature; bound MAGI1 (H-70) or MAGI3 (46) detected with antibody and TMB at 450 nm; lysates of non-activated cells, and of PAR2-AP-activated cells up to 30 min (39% less MAGI1 on the non-phosphorylated peptide at about 20 min); only the target purified.

The target of experiment [3] is Tissue factor (human (endogenous in MDA-MB-231)) (UniProt P13726). Briefly: proximity ligation; Duolink PLA in fixed, permeabilised MDA-MB-231 cells; mouse anti-TF (HTF1) with rabbit anti-MAGI1 (H-70), anti-MAGI2 or anti-MAGI3; resting cells and cells treated with PAR2-AP 20 uM up to 40 min (26% reduction of TF-MAGI1 proximity at 20 min; change not significant for MAGI2 and MAGI3).

In experiment [4] the target is Membrane-associated guanylate kinase with inverted configuration 1 (human (endogenous in MDA-MB-231)) (UniProt Q96QZ7). Put plainly: co-IP; endogenous proteins from MDA-MB-231 lysate (PhosphoSafe reagent), antibody overnight at 4 C, protein A-magnetic beads, five washes with PBST, western blot; IP with anti-TF (HTF-1) or anti-MAGI1 (H-70), also studies with anti-MAGI2, anti-MAGI3, anti-MAGIX (D-18), anti-Rhophilin-1 (I-19); resting cells and cells treated with PAR2-AP 20 uM 20 min (33% less MAGI1 with TF; 19% less TF with MAGI1).

As to MAGIX (from UniProt Q9H6Y5 1-334), the binding result in experiment [1] was “no binding”.

“Membrane-associated guanylate kinase with inverted configuration 1 (from UniProt Q96QZ7 1-1491)”: the binding entry in experiment [2] is reported as “no binding (tested: peptide coated at 5 µM)”; in experiment [3] it was “binds”; in experiment [1], “binds”.

Consider “Tissue factor (from UniProt P13726 33-295)”, for which the binding entry in experiment [4] is on record as “binds”.

B1: Rhophilin-1 (protein, UniProt Q8TCX5 1-670)
chain: MILEERPDGAGAGEESPRLQGCDSLTQIQCGQLQSRRAQIHQQIDKELQMRTGAENLYRATSNNRVRETVALELSYVNSNLQLLKEELEELSGGVDPGRHGSEAVTVPMIPLGLKETKELDWSTPLKELISVHFGEDGASYEAEIRELEALRQAMRTPSRNESGLELLTAYYNQLCFLDARFLTPARSLGLFFHWYDSLTGVPAQQRALAFEKGSVLFNIGALHTQIGARQDRSCTEGARRAMEAFQRAAGAFSLLRENFSHAPSPDMSAASLCALEQLMMAQAQECVFEGLSPPASMAPQDCLAQLRLAQEAAQVAAEYRLVHRTMAQPPVHDYVPVSWTALVHVKAEYFRSLAHYHVAMALCDGSPATEGELPTHEQVFLQPPTSSKPRGPVLPQELEERRQLGKAHLKRAILGQEEALRLHALCRVLREVDLLRAVISQTLQRSLAKYAELDREDDFCEAAEAPDIQPKTHQKPEARMPRLSQGKGPDIFHRLGPLSVFSAKNRWRLVGPVHLTRGEGGFGLTLRGDSPVLIAAVIPGSQAAAAGLKEGDYIVSVNGQPCRWWRHAEVVTELKAAGEAGASLQVVSLLPSSRLPSLGDRRPVLLGPRGLLRSQREHGCKTPASTWASPRPLLNWSRKAQQGKTGGCPQPCAPVKPAPPSSLKHPGWP
On to B1, for which, in experiment [1], the binding entry is “no binding”.
